Results reported in the supplement of paper PMC8728848.
The other results are listed elsewhere or left out.

Assays:
Assay in all cases: glycan array binding signal (z-score within array); higher = stronger binding
Settings in all cases: glycan notation: IUPAC condensed, linker removed; mutation: R144S
[1] = molecular target: Fuc(a1-2)[GalNAc(a1-3)]Gal(b1-4)GlcNAc(b1-3)Gal(b1-4)GlcNAc
Summary of the method: (§1)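 The binding signal is a Z-score computed within each array and averaged over linkers. Arrays of the same protein sequence at different concentrations or buffers were also averaged together. Data originate from 3228 arrays in the Consortium for Functional Glycomics database, kept only where the protein sequence was available.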

[2] = molecular target: Fuc(a1-2)[GalNAc(a1-3)]Gal(b1-4)GlcNAc(b1-3)Gal(b1-4)GlcNAc(b1-3)Gal(b1-4)GlcNAc
Summary of the method: as §1

[3] = molecular target: Fuc(a1-2)[GalNAc(a1-3)]Gal(b1-4)[Fuc(a1-3)]GlcNAc
Summary of the method: as §1

[4] = molecular target: Fuc(a1-2)[GalNAc(a1-4)]Gal(b1-4)GlcNAc
Summary of the method: as §1

[5] = molecular target: Fuc(a1-2)[GalNAc(b1-3)]Gal
Summary of the method: as §1

Fuc(a1-3)GlcNAc = molecular target: Fuc(a1-3)GlcNAc
Summary of the method: as §1

[6] = molecular target: Fuc(a1-3)[Gal(b1-4)]Glc6S
Summary of the method: as §1

[7] = molecular target: Fuc(a1-3)[Gal(b1-4)]GlcNAc
Summary of the method: as §1

[8] = molecular target: Fuc(a1-3)[Gal(b1-4)]GlcNAc(b1-2)Man(a1-3)[Fuc(a1-3)[Gal(b1-4)]GlcNAc(b1-2)Man(a1-6)]Man(b1-4)GlcNAc(b1-4)GlcNAc
Summary of the method: as §1

[9] = molecular target: Fuc(a1-3)[Gal(b1-4)]GlcNAc(b1-3)Gal(b1-3)[Fuc(a1-4)]GlcNAc
Summary of the method: as §1

[10] = molecular target: Fuc(a1-3)[Gal(b1-4)]GlcNAc(b1-3)GalNAc
Summary of the method: as §1

[11] = molecular target: Fuc(a1-3)[Gal(b1-4)]GlcNAc(b1-4)Gal(b1-4)[Fuc(a1-3)]GlcNAc
Summary of the method: as §1

[12] = molecular target: Fuc(a1-3)[Gal(b1-4)]GlcNAc(b1-4)Gal(b1-4)[Fuc(a1-3)]GlcNAc(b1-4)Gal(b1-4)[Fuc(a1-3)]GlcNAc
Summary of the method: as §1

[13] = molecular target: Fuc(a1-3)[Gal(b1-4)]GlcNAc(b1-6)[Gal(b1-3)GlcNAc(b1-3)]Gal(b1-4)Glc
Summary of the method: as §1

[14] = molecular target: Fuc(a1-3)[Gal(b1-4)]GlcNAc6S
Summary of the method: as §1

[15] = molecular target: Fuc(a1-3)[Gal3S(b1-4)]GlcNAc
Summary of the method: as §1

[16] = molecular target: Fuc(a1-3)[Gal3S(b1-4)]GlcNAc6S
Summary of the method: as §1

[17] = molecular target: Fuc(a1-3)[GalNAc(b1-4)]GlcNAc
Summary of the method: as §1

Fuc(a1-4)GlcNAc = molecular target: Fuc(a1-4)GlcNAc
Summary of the method: as §1

Fuc(b1-3)GlcNAc = molecular target: Fuc(b1-3)GlcNAc
Summary of the method: as §1

Gal(a1-2)Gal = molecular target: Gal(a1-2)Gal
Summary of the method: as §1

Gal(a1-3)Gal = molecular target: Gal(a1-3)Gal
Summary of the method: as §1

Gal(a1-3)Gal(b1-3)GlcNAc = molecular target: Gal(a1-3)Gal(b1-3)GlcNAc
Summary of the method: as §1

[18] = molecular target: Gal(a1-3)Gal(b1-3)GlcNAc(b1-2)Man(a1-3)[Gal(a1-3)Gal(b1-3)GlcNAc(b1-2)Man(a1-6)]Man(b1-4)GlcNAc(b1-4)GlcNAc
Summary of the method: as §1

[19] = molecular target: Gal(a1-3)Gal(b1-3)[Fuc(a1-4)]GlcNAc(b1-2)Man(a1-3)[Gal(a1-3)Gal(b1-3)[Fuc(a1-4)]GlcNAc(b1-2)Man(a1-6)]Man(b1-4)GlcNAc(b1-4)GlcNAc
Summary of the method: as §1

Gal(a1-3)Gal(b1-4)Glc = molecular target: Gal(a1-3)Gal(b1-4)Glc
Summary of the method: as §1

Gal(a1-3)Gal(b1-4)GlcNAc = molecular target: Gal(a1-3)Gal(b1-4)GlcNAc
Summary of the method: as §1

[20] = molecular target: Gal(a1-3)Gal(b1-4)GlcNAc(b1-3)GalNAc
Summary of the method: as §1

[21] = molecular target: Gal(a1-3)Gal(b1-4)[Fuc(a1-3)]GlcNAc
Summary of the method: as §1

[22] = molecular target: Gal(a1-3)Gal(b1-4)[Fuc(a1-3)]GlcNAc(b1-2)Man(a1-3)[Gal(a1-3)Gal(b1-4)[Fuc(a1-3)]GlcNAc(b1-2)Man(a1-6)]Man(b1-4)GlcNAc(b1-4)GlcNAc
Summary of the method: as §1

Gal(a1-3)GalNAc = molecular target: Gal(a1-3)GalNAc
Summary of the method: as §1

[23] = molecular target: Gal(a1-3)[Gal(a1-4)]Gal(b1-4)GlcNAc
Summary of the method: as §1

[24] = molecular target: Gal(a1-4)Gal(b1-3)GlcNAc(b1-2)Man(a1-3)[Gal(a1-4)Gal(b1-3)GlcNAc(b1-2)Man(a1-6)]Man(b1-4)GlcNAc(b1-4)GlcNAc
Summary of the method: as §1

Gal(a1-4)Gal(b1-4)Glc = molecular target: Gal(a1-4)Gal(b1-4)Glc
Summary of the method: as §1

Gal(a1-4)Gal(b1-4)GlcNAc = molecular target: Gal(a1-4)Gal(b1-4)GlcNAc
Summary of the method: as §1

[25] = molecular target: Gal(a1-4)Gal(b1-4)GlcNAc(b1-2)Man(a1-3)[Gal(a1-4)Gal(b1-4)GlcNAc(b1-2)Man(a1-6)]Man(b1-4)GlcNAc(b1-4)GlcNAc
Summary of the method: as §1

[26] = molecular target: Gal(a1-4)Gal(b1-4)GlcNAc(b1-3)Gal(b1-4)Glc
Summary of the method: as §1

Gal(a1-4)GlcNAc = molecular target: Gal(a1-4)GlcNAc
Summary of the method: as §1

Gal(a1-6)Glc = molecular target: Gal(a1-6)Glc
Summary of the method: as §1

Gal(b1-2)Gal = molecular target: Gal(b1-2)Gal
Summary of the method: as §1

Gal(b1-3)Gal = molecular target: Gal(b1-3)Gal
Summary of the method: as §1

Gal(b1-3)Gal(b1-4)GlcNAc = molecular target: Gal(b1-3)Gal(b1-4)GlcNAc
Summary of the method: as §1

[27] = molecular target: Gal(b1-3)Gal(b1-4)GlcNAc(b1-2)Man(a1-3)[Gal(b1-3)Gal(b1-4)GlcNAc(b1-2)Man(a1-6)]Man(b1-4)GlcNAc(b1-4)GlcNAc
Summary of the method: as §1

Gal(b1-3)GalNAc = molecular target: Gal(b1-3)GalNAc
Summary of the method: as §1

[28] = molecular target: Gal(b1-3)GalNAc(a1-3)[Fuc(a1-2)]Gal(b1-4)Glc
Summary of the method: as §1

B1: Gal 3 (Homo sapiens), P17931 (protein)
chain: MADNFSLHDALSGSGNPNPQGWPGAWGNQPAGAGGYPGASYPGAYPGQAPPGAYPGQAPPGAYHGAPGAYPGAPAPGVYPGPPSGPGAYPSSGQPSAPGAYPATGPYGAPAGPLIVPYNLPLPGGVVPRMLITILGTVKPNANSILDFQRGNDVAFHFNPRFNENNRRVIVCNTKLDNNWGREERQSVFPFESGKPFKIQVLVEPDHFKVAVNDAHLLQYNHRVKKLNEISKLGISGDIDLTSASYTMI
glycan array binding signal (z-score) [1]: 4.53
glycan array binding signal (z-score) [2]: 4.99
glycan array binding signal (z-score) [3]: -0.356
glycan array binding signal (z-score) [4]: -0.356
glycan array binding signal (z-score) [5]: -0.358
glycan array binding signal (z-score) (Fuc(a1-3)GlcNAc): -0.349
glycan array binding signal (z-score) [6]: -0.358
glycan array binding signal (z-score) [7]: -0.36
glycan array binding signal (z-score) [8]: -0.354
glycan array binding signal (z-score) [9]: -0.36
glycan array binding signal (z-score) [10]: -0.357
glycan array binding signal (z-score) [11]: -0.358
glycan array binding signal (z-score) [12]: -0.358
glycan array binding signal (z-score) [13]: -0.3
glycan array binding signal (z-score) [14]: -0.366
glycan array binding signal (z-score) [15]: -0.359
glycan array binding signal (z-score) [16]: -0.349
glycan array binding signal (z-score) [17]: -0.354
glycan array binding signal (z-score) (Fuc(a1-4)GlcNAc): -0.358
glycan array binding signal (z-score) (Fuc(b1-3)GlcNAc): -0.356
glycan array binding signal (z-score) (Gal(a1-2)Gal): -0.362
glycan array binding signal (z-score) (Gal(a1-3)Gal): -0.357
glycan array binding signal (z-score) (Gal(a1-3)Gal(b1-3)GlcNAc): 0.831
glycan array binding signal (z-score) [18]: -0.347
glycan array binding signal (z-score) [19]: -0.356
glycan array binding signal (z-score) (Gal(a1-3)Gal(b1-4)Glc): -0.07
glycan array binding signal (z-score) (Gal(a1-3)Gal(b1-4)GlcNAc): 0.491
glycan array binding signal (z-score) [20]: 0.785
glycan array binding signal (z-score) [21]: -0.356
glycan array binding signal (z-score) [22]: -0.359
glycan array binding signal (z-score) (Gal(a1-3)GalNAc): -0.359
glycan array binding signal (z-score) [23]: -0.348
glycan array binding signal (z-score) [24]: -0.361
glycan array binding signal (z-score) (Gal(a1-4)Gal(b1-4)Glc): -0.359
glycan array binding signal (z-score) (Gal(a1-4)Gal(b1-4)GlcNAc): -0.359
glycan array binding signal (z-score) [25]: -0.35
glycan array binding signal (z-score) [26]: -0.326
glycan array binding signal (z-score) (Gal(a1-4)GlcNAc): -0.354
glycan array binding signal (z-score) (Gal(a1-6)Glc): -0.359
glycan array binding signal (z-score) (Gal(b1-2)Gal): -0.358
glycan array binding signal (z-score) (Gal(b1-3)Gal): -0.359
glycan array binding signal (z-score) (Gal(b1-3)Gal(b1-4)GlcNAc): 0.189
glycan array binding signal (z-score) [27]: 3.83
glycan array binding signal (z-score) (Gal(b1-3)GalNAc): -0.356
glycan array binding signal (z-score) [28]: 1.84
